Changes are numbered by the printed parent chain; changes in the protein carry UniProt numbers. The list shows a part of the results.
T1: RBFOX1 RRM RbFoxmut (Fox-RRM*) (Homo sapiens, UniProt Q9NWB1 109-208, R118D;E147R;N151S;E152T)
T1 sequence: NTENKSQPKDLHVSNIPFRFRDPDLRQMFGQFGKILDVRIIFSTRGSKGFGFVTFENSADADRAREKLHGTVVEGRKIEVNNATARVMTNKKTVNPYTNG

B1: AGGACUA (DNA:RNA)
RNA: GGGAGACCGGAAUUCAGAUUGUCCAGGACUAUUAAAUCCCGUCGUAGCCACCA
DNA 1: CAATCTGAATTCCGGTCTCCC
DNA 2: TGGTGGCTACGACGGGATT
B2: UUACCAU (DNA:RNA)
RNA: B1 RNA with A25U, G26U, G27A, A28C, U30A, A31U
DNA 1: CAATCTGAATTCCGGTCTCCC
DNA 2: TGGTGGCTACGACGGGATT
B3: GUACCAU (DNA:RNA)
RNA: B1 RNA with A25G, G26U, G27A, A28C, U30A, A31U
DNA 1: CAATCTGAATTCCGGTCTCCC
DNA 2: TGGTGGCTACGACGGGATT
B4: AAUAACU (DNA:RNA)
RNA: B1 RNA with G26A, G27U, C29A, U30C, A31U
DNA 1: CAATCTGAATTCCGGTCTCCC
DNA 2: TGGTGGCTACGACGGGATT
B5: UUGCUCU (DNA:RNA)
RNA: B1 RNA with A25U, G26U, A28C, C29U, U30C, A31U
DNA 1: CAATCTGAATTCCGGTCTCCC
DNA 2: TGGTGGCTACGACGGGATT
B6: ACUCGUA (DNA:RNA)
RNA: B1 RNA with G26C, G27U, A28C, C29G
DNA 1: CAATCTGAATTCCGGTCTCCC
DNA 2: TGGTGGCTACGACGGGATT
B7: AAUCUGC (DNA:RNA)
RNA: B1 RNA with G26A, G27U, A28C, C29U, U30G, A31C
DNA 1: CAATCTGAATTCCGGTCTCCC
DNA 2: TGGTGGCTACGACGGGATT
B8: UGAAAUC (DNA:RNA)
RNA: B1 RNA with A25U, G27A, C29A, A31C
DNA 1: CAATCTGAATTCCGGTCTCCC
DNA 2: TGGTGGCTACGACGGGATT
B9: CGUGCAC (DNA:RNA)
RNA: B1 RNA with A25C, G27U, A28G, U30A, A31C
DNA 1: CAATCTGAATTCCGGTCTCCC
DNA 2: TGGTGGCTACGACGGGATT
B10: CGCACGC (DNA:RNA)
RNA: B1 RNA with A25C, G27C, U30G, A31C
DNA 1: CAATCTGAATTCCGGTCTCCC
DNA 2: TGGTGGCTACGACGGGATT
B11: GGCGUAG (DNA:RNA)
RNA: B1 RNA with A25G, G27C, A28G, C29U, U30A, A31G
DNA 1: CAATCTGAATTCCGGTCTCCC
DNA 2: TGGTGGCTACGACGGGATT
B12: AGUCACA (DNA:RNA)
RNA: B1 RNA with G27U, A28C, C29A, U30C
DNA 1: CAATCTGAATTCCGGTCTCCC
DNA 2: TGGTGGCTACGACGGGATT
B13: CUGCCGA (DNA:RNA)
RNA: B1 RNA with A25C, G26U, A28C, U30G
DNA 1: CAATCTGAATTCCGGTCTCCC
DNA 2: TGGTGGCTACGACGGGATT
B14: AUACCGU (DNA:RNA)
RNA: B1 RNA with G26U, G27A, A28C, U30G, A31U
DNA 1: CAATCTGAATTCCGGTCTCCC
DNA 2: TGGTGGCTACGACGGGATT
B15: GUGACUU (DNA:RNA)
RNA: B1 RNA with A25G, G26U, A31U
DNA 1: CAATCTGAATTCCGGTCTCCC
DNA 2: TGGTGGCTACGACGGGATT
B16: CCUUCCC (DNA:RNA)
RNA: B1 RNA with A25C, G26C, G27U, A28U, U30C, A31C
DNA 1: CAATCTGAATTCCGGTCTCCC
DNA 2: TGGTGGCTACGACGGGATT
B17: AGUAAUC (DNA:RNA)
RNA: B1 RNA with G27U, C29A, A31C
DNA 1: CAATCTGAATTCCGGTCTCCC
DNA 2: TGGTGGCTACGACGGGATT
B18: AAGUGGA (DNA:RNA)
RNA: B1 RNA with G26A, A28U, C29G, U30G
DNA 1: CAATCTGAATTCCGGTCTCCC
DNA 2: TGGTGGCTACGACGGGATT
B19: GAUAUCA (DNA:RNA)
RNA: B1 RNA with A25G, G26A, G27U, C29U, U30C
DNA 1: CAATCTGAATTCCGGTCTCCC
DNA 2: TGGTGGCTACGACGGGATT
B20: UCCACAU (DNA:RNA)
RNA: B1 RNA with A25U, G26C, G27C, U30A, A31U
DNA 1: CAATCTGAATTCCGGTCTCCC
DNA 2: TGGTGGCTACGACGGGATT
B21: UGUUAGU (DNA:RNA)
RNA: B1 RNA with A25U, G27U, A28U, C29A, U30G, A31U
DNA 1: CAATCTGAATTCCGGTCTCCC
DNA 2: TGGTGGCTACGACGGGATT
B22: CGAAACU (DNA:RNA)
RNA: B1 RNA with A25C, G27A, C29A, U30C, A31U
DNA 1: CAATCTGAATTCCGGTCTCCC
DNA 2: TGGTGGCTACGACGGGATT
B23: CGUGUUG (DNA:RNA)
RNA: B1 RNA with A25C, G27U, A28G, C29U, A31G
DNA 1: CAATCTGAATTCCGGTCTCCC
DNA 2: TGGTGGCTACGACGGGATT
B24: CGAGUGC (DNA:RNA)
RNA: B1 RNA with A25C, G27A, A28G, C29U, U30G, A31C
DNA 1: CAATCTGAATTCCGGTCTCCC
DNA 2: TGGTGGCTACGACGGGATT
B25: AUAUGGG (DNA:RNA)
RNA: B1 RNA with G26U, G27A, A28U, C29G, U30G, A31G
DNA 1: CAATCTGAATTCCGGTCTCCC
DNA 2: TGGTGGCTACGACGGGATT
B26: AACUUCC (DNA:RNA)
RNA: B1 RNA with G26A, G27C, A28U, C29U, U30C, A31C
DNA 1: CAATCTGAATTCCGGTCTCCC
DNA 2: TGGTGGCTACGACGGGATT
B27: GUGAUAG (DNA:RNA)
RNA: B1 RNA with A25G, G26U, C29U, U30A, A31G
DNA 1: CAATCTGAATTCCGGTCTCCC
DNA 2: TGGTGGCTACGACGGGATT
B28: CCGGUAU (DNA:RNA)
RNA: B1 RNA with A25C, G26C, A28G, C29U, U30A, A31U
DNA 1: CAATCTGAATTCCGGTCTCCC
DNA 2: TGGTGGCTACGACGGGATT
B29: CACAGAU (DNA:RNA)
RNA: B1 RNA with A25C, G26A, G27C, C29G, U30A, A31U
DNA 1: CAATCTGAATTCCGGTCTCCC
DNA 2: TGGTGGCTACGACGGGATT
B30: AUUAGAA (DNA:RNA)
RNA: B1 RNA with G26U, G27U, C29G, U30A
DNA 1: CAATCTGAATTCCGGTCTCCC
DNA 2: TGGTGGCTACGACGGGATT
B31: AUGAACC (DNA:RNA)
RNA: B1 RNA with G26U, C29A, U30C, A31C
DNA 1: CAATCTGAATTCCGGTCTCCC
DNA 2: TGGTGGCTACGACGGGATT

The binders below were run against T1, RBFOX1 RRM RbFoxmut (Fox-RRM*) (assay: EMSA; HiTS-Eq, 1 nM pool, 10 min; buffer printed only for the single-RNA assays: 10 mM Tris pH 7.5, 150 mM NaCl, 3.4 mM EDTA, 0.001% NP-40, 30 C). Conditions: tags: His6 N-terminal (pET28a); label: 5' 32P.
Outline: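 These values rest on relative association constants, computed from read-count changes of each RNA species versus the control reaction and normalised to the cognate motif. Reads came from free RNA recovered by 8% native PAGE after purified RbFox RRM (wild type or mutant) at increasing concentrations was equilibrated for 10 min in 50 µL with 1 nM of a 5′-radiolabelled pool with 7 randomized nucleotides and DNA-annealed flanks.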
For B1, the binding signal was 0.0812 KA relative to UGCAUGU.
For B2, the binding signal was 0.0766 KA relative to UGCAUGU.
In the case of B3, the binding signal is reported as 0.0938 KA relative to UGCAUGU.
For B4, the binding signal was 0.0965 KA relative to UGCAUGU.
In the case of B5, the binding signal is reported as 0.0745 KA relative to UGCAUGU.
In the case of B6, the binding signal is reported as 0.141 KA relative to UGCAUGU.
In the case of B7, the binding signal is reported as 0.0446 KA relative to UGCAUGU.
B8 was tested, and the binding signal was 0.0522 KA relative to UGCAUGU.
For B9, the binding signal was 0.0939 KA relative to UGCAUGU.
B10 was tested, and the binding signal was 0.117 KA relative to UGCAUGU.
With B11 the binding signal was 0.106 KA relative to UGCAUGU.
With B12 the binding signal was 0.0708 KA relative to UGCAUGU.
With B13 the binding signal was 0.066 KA relative to UGCAUGU.
With B14 the binding signal was 0.101 KA relative to UGCAUGU.
With B15 the binding signal was 0.0656 KA relative to UGCAUGU.
With B16 the binding signal was 0.057 KA relative to UGCAUGU.
With B17 the binding signal was 0.0534 KA relative to UGCAUGU.
In the case of B18, the binding signal is reported as 0.0619 KA relative to UGCAUGU.
B19 was tested, and the binding signal was 0.0845 KA relative to UGCAUGU.
In the case of B20, the binding signal is reported as 0.114 KA relative to UGCAUGU.
In the case of B21, the binding signal is reported as 0.196 KA relative to UGCAUGU.
B22 was tested, and the binding signal was 0.0571 KA relative to UGCAUGU.
For B23, the binding signal was 0.167 KA relative to UGCAUGU.
B24 was tested, and the binding signal was 0.124 KA relative to UGCAUGU.
In the case of B25, the binding signal is reported as 0.0795 KA relative to UGCAUGU.
In the case of B26, the binding signal is reported as 0.0641 KA relative to UGCAUGU.
For B27, the binding signal was 0.131 KA relative to UGCAUGU.
In the case of B28, the binding signal is reported as 0.0722 KA relative to UGCAUGU.
For B29, the binding signal was 0.0737 KA relative to UGCAUGU.
In the case of B30, the binding signal is reported as 0.144 KA relative to UGCAUGU.
For B31, the binding signal was 0.118 KA relative to UGCAUGU.

Reference: paper PMC9911399, “Two distinct binding modes provide the RNA-binding protein RbFox with extraordinary sequence specificity”
